Experimental data published in PubChem BioAssay AID488969 (Vanderbilt High Throughput Screening Facility, 2010).
Whole data set: some 110,000 compounds, median “z-score” near -0.1, cut for the highest 2% near 2. Some of the results follow.

Molecular target: Metabotropic glutamate receptor 8 (Rattus norvegicus) (UniProt P70579)
Assay: rat mGluR8 modulators via GIRK flux, primary screen, cell-based, thallium flux, HTS (AID 488969)
Details: HEK293 rat mGluR8, GIRK (G protein-gated inwardly rectifying potassium channel) thallium flux, FluoZin2; at 10 µM; stronger effect = higher value; submaximal glutamate (EC20) added with thallium

Sequence of UniProt P70579 (P70579 whole entry, looked up): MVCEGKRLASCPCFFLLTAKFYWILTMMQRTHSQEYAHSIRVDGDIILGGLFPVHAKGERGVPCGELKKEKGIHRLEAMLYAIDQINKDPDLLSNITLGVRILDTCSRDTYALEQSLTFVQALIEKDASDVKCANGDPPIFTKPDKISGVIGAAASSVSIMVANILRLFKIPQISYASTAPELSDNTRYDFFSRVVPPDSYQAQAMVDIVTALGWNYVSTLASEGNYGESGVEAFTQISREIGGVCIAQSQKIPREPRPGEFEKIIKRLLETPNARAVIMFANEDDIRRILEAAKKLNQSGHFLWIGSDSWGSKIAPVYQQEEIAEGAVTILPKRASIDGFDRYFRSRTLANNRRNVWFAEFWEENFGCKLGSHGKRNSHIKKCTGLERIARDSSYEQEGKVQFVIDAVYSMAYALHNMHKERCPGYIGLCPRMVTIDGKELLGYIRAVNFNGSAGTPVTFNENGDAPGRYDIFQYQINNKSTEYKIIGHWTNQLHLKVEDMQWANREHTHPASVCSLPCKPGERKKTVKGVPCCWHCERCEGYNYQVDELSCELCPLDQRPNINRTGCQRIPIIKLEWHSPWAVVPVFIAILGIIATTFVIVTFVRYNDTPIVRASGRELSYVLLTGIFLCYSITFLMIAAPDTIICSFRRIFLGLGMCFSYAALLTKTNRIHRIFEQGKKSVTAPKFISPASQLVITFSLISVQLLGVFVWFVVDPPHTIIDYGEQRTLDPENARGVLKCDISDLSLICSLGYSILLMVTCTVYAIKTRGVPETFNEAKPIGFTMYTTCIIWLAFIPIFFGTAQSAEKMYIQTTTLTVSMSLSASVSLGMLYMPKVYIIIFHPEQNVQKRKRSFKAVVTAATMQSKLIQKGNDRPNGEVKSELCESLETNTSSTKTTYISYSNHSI

Row | Compound | z-score
1 | COc1ccc(NC(=O)C(CCSC)N2C(=O)c3ccccc3C2=O)cc1 (configuration not stated) | 0.508
2 | Cc1ccc(-c2cn(-c3ccccc3)c(SCC(N)=O)n2)cc1C | -1.06
3 | COc1cccc(C(=O)Nc2ccc(N3CCN(S(C)(=O)=O)CC3)cc2)c1 | -0.135
4 | O=C(N/N=C/c1cccs1)/C(=C/c1ccccc1)NC(=O)c1ccccc1 | 0.104
5 | CCSc1nnc2n1C(C)(C)Cc1ccccc1-2 | -0.208
6 | O=C(Cc1ccc(F)cc1)Nc1c2c(nn1-c1cccc(Cl)c1)CS(=O)C2 (configuration not stated) | 0.147
7 | Cc1ccc(NC(=O)COC(=O)c2ccc3c(c2)OCO3)cc1S(=O)(=O)N1CCCCC1 | -0.401
8 | O=C(O)CN1C(=O)C2C3CC(C2C1=O)C1C(c2ccccc2)c2sc(=O)[nH]c2SC31 (configuration not stated) | -0.358
9 | CCCc1cc(=O)[nH]c(SCC(=O)Nc2nonc2N)n1 | -0.434
10 | Cc1nn(C)c(C)c1NC(=O)CSc1nc(Cc2ccccc2)nc2c1cnn2-c1ccccc1 | 0.55
11 | CCC1(C)Cc2c(sc3nc4n(c(=O)c23)CCCS4)CO1 (configuration not stated) | -0.166
12 | CCCN(CCC)c1ccc(CC(=O)NC(C)Cc2ccccc2)cc1 (configuration not stated) | -0.226
13 | Cc1nnc(SCC(=O)NCc2ccccc2Cl)n(N)c1=O | -0.182
14 | CC1CCCCC1NC(=O)CCCc1nc2ccccc2c(=O)[nH]1 (configuration not stated) | 0.335
15 | Cc1cc2nc(CCN(C(=S)NCC(C)C)C3CCCC3)[nH]c2cc1C | 0.351
16 | CCn1c2ccccc2c2cc(NC(=O)c3cccc(OC)c3)ccc21 | -1.39
17 | COc1ccc(CNC(=O)c2cc(-c3cccs3)on2)cc1 | 0.49
18 | Cc1ccc(NC(=O)C2CCCNC2=O)nc1 (configuration not stated) | -0.231
19 | Cc1ccsc1/C=N/NC(=O)Cn1cnc2ccccc21 | 0.0545
20 | Cc1cc(=O)oc(C)c1C(=O)N[C@@H]1CCCCNC1=O | 0.148
21 | COc1cc(-c2nnc(SCC(=O)c3ccc(C)cc3)o2)cc(OC)c1OC | -0.131
22 | CCCn1nnc(NC(=O)c2ccc(OCC)c(Cl)c2)n1 | -0.225
23 | COc1ccc(CC(C#N)(CO)c2nc3ccccc3[nH]2)cc1 (configuration not stated) | -0.102
24 | CCCC(=O)Nn1cnc2c(c1=O)C1(CCCC1)Cc1ccccc1-2 | -0.338

Row | Compound | z-score
25 | CC1CCCCN1S(=O)(=O)c1ccc(S(=O)(=O)NCCc2ccncc2)cc1 (configuration not stated) | -0.0388
26 | O=C(Nc1ccccc1-c1nc2ccccc2s1)c1ccc(Br)o1 | -0.0136
27 | O=C(CCl)NCCCCCCCCCNC(=O)CCl | 0.0833
28 | CCN1CCN(CCCNC(=O)C(NC(=O)C2CCC(C)CC2)C(C)C)CC1 (configuration not stated) | -0.0333
29 | CCN(CC)S(=O)(=O)c1ccc(-c2nnc(SCC(=O)Nc3nnc(C)s3)n2CC)cc1 | -0.472
30 | COc1ccc(Br)cc1S(=O)(=O)N1CC(C)OC(C)C1 (configuration not stated) | -0.685
31 | COC(/C=C/Nc1ccc(OC)cc1)=C(C#N)C#N | -0.0812
32 | CCn1c(SCC(=O)N2c3ccccc3CC2C)nnc1-c1ccco1 (configuration not stated) | -0.737
33 | CCCC(=O)OCC(=O)Nc1cc(C(C)(C)C)nn1-c1ccccc1 | 0.676
34 | O=C(Nc1cccnc1)Nc1ccc(Br)cc1Cl | -0.0574
35 | CCN1CCCC1CNC(=O)CS(=O)(=O)Cc1nc(-c2ccccc2C)oc1C (configuration not stated) | 1.21
36 | NCCCSC1=NCCCN1 | 0.28
37 | O=C(COC(=O)c1ccc2c(c1)C(=O)N(Cc1ccncc1)C2=O)Nc1ccccc1[N+](=O)[O-] | -0.521
38 | CCC(=O)Nc1ccc(C(=O)NNC(=O)COc2cc(C)ccc2C)cc1 | 0.058
39 | CSc1nc(C)cc(C)c1C(N)=O | -0.0617
40 | O=C(Cc1cccc2ccccc12)NCC1CCCO1 (configuration not stated) | 0.0236
41 | CCN(CC)C(=O)CN1CCN(c2ccccc2F)CC1 | 0.463
42 | CCCCn1ccnc1C(=O)c1cc(S(=O)(=O)N2CCOCC2)ccc1C | -0.0858
43 | N#Cc1c(NC(=S)NC(=O)C2CCCC2)sc2c1CCCCC2 | 0.0233
44 | CC(=O)c1cccc(NC(=O)CN2C(=O)C3C4C=CC(C4)C3C2=O)c1 (configuration not stated) | 0.0311
45 | CC(O)c1c(OCc2ccccc2)ncnc1OCc1ccccc1 (configuration not stated) | -0.29
46 | CCCc1cc(=O)[nH]c(SCC(=O)c2ccc3c(c2)OCCO3)n1 | -0.174
47 | Cn1c(=O)oc2cc(S(=O)(=O)NCc3ccccc3)ccc21 | 0.611
48 | CCOC(=O)c1oc2cc(O)cc(C)c2c(=O)c1-c1cscn1 | 0.0192

Row | Compound | z-score
49 | CCCCC(=O)Nc1ccc(NC(=O)CCCC)nc1 | 1.64
50 | C/C=C/c1ccc(OCCOc2ccc(C=O)cc2)c(OC)c1 | -0.43
51 | Cc1ccc(CS(=O)(=O)CCC(=O)NCCC(C)C)cc1 | -0.189
52 | O=S(=O)(c1ccccc1)c1ccccc1/C=N\O | -1.52
53 | Cc1cc([N+](=O)[O-])ccc1NC(=O)/C=C/c1cccs1 | -0.0372
54 | CCC(C)Sc1nc(O)c(Cc2ccccc2)c(=O)[nH]1 (configuration not stated) | 0.789
55 | Cc1ccc(-c2cc(C(F)F)nc(NCc3cccnc3)n2)cc1 | -0.718
56 | Cc1ccc(-c2nnn(CC(=O)N(CC(=O)NCc3ccccc3)c3cccc(C)c3C)n2)o1 | -0.68
57 | CCOC(=O)N1CCC(NC(=O)CS(=O)Cc2nc(-c3ccc(OC)c(OC)c3)oc2C)CC1 (configuration not stated) | -1.06
58 | Nn1c(SCC(=O)Nc2ccc3c(c2)OCO3)nnc1-c1ccc(Cl)cc1 | -0.179
59 | CCOC(=O)c1ccc(NS(=O)(=O)c2ccc3c(c2)oc(=O)n3C)cc1 | 0.684
60 | Cc1ccc(C(=O)NCc2ccco2)cc1Br | -0.302
61 | Cn1c(CNC2CCCCC2)c(C#N)c2ccccc21 | 0.256
62 | Cc1cc(OC(=O)C(c2ccccc2)c2ccccc2)c([N+](=O)[O-])c(=O)[nH]1 | 0.0153
63 | CCOC(=O)CN(C(=O)CSc1nnc(-c2ccncc2)n1CCCOC)c1ccccc1 | 1.94
64 | O=C(OCC(=O)N1CCc2ccccc21)c1cccnc1 | -0.0106
65 | COCCn1c(SCC(=O)c2ccc(CNC(C)=O)o2)nc2ccccc2c1=O | 0.044
66 | CCOC(=O)N1CCN(C(=O)Cc2ccsc2)CC1 | -0.965
67 | COc1cc(OC)cc(C(=O)NCCOc2ccccc2)c1 | 0.162
68 | Cc1ccc(S(=O)(=O)NC(=O)c2cc(C)n(-c3cc(S(=O)(=O)N4CCOCC4)ccc3N3CCCC3)c2C)cc1 | 0.0127
69 | NC(=O)c1ccc(NC(=O)c2ccc(CN3CCOCC3)cc2)cc1 | -0.165
70 | O=C(Nc1cccc(-c2cn3cccnc3n2)c1)c1cccs1 | 0.0303
71 | O=c1c2c(nc3cc(-c4cccc(Cl)c4)[nH]n13)CCC2 | 0.391
72 | COc1ccc(OC)c(C(=O)c2ccc(C(=O)Nc3cccc4ccccc34)cc2)c1 | 0.682
